The supplement of paper PMC3334620
In all, about 33,000 sequences were measured (“E-score (-0.5 to 0.5)”: median about -0.043, highest 2% from about 0.37 on). The list shows a part of the results.

target: T1, Upc2 (UniProt Q12151); assay: PBM E-score (8-mer binding enrichment) (E-score (-0.5 to 0.5)); higher = stronger / more preferred TF binding; most listed sequences are background and not binding sites; conditions: protein concentration: 200 nM; construct: GST-full length
T1 sequence: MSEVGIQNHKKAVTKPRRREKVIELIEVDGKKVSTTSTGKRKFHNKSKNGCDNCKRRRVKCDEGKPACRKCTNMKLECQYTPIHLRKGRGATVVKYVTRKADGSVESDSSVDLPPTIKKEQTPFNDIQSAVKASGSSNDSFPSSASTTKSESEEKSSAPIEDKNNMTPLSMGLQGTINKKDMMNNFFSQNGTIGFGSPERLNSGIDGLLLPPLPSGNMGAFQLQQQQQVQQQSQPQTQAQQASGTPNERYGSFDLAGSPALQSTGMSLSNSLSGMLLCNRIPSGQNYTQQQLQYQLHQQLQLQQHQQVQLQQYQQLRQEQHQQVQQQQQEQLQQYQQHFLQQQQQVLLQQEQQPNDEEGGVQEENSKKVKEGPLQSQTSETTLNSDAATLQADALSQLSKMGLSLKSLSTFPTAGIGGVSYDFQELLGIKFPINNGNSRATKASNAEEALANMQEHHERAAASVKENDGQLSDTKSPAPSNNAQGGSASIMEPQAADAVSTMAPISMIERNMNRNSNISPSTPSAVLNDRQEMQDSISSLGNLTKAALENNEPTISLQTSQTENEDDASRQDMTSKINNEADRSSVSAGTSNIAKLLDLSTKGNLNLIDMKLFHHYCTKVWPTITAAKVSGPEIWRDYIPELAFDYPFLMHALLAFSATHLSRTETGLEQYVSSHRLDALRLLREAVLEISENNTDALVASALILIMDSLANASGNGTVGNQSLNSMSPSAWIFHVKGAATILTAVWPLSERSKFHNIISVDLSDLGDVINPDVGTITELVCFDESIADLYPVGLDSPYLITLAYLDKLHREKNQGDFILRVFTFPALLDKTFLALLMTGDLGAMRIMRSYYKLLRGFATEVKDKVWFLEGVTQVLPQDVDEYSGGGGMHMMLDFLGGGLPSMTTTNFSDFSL
Procedure, shortened: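 For each ungapped eight-base word taken together with its reverse complement, the Universal PBM Analysis Suite assigned an E-score. Binding data came from GST-tagged yeast transcription factors, applied at about 100-200 nM, on universal all-10-mer Agilent arrays made double-stranded by primer extension. Fluorescent anti-GST marked bound protein, and scans were normalised with masliner.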

Sequence	PBM E-score
ATGTGTTG	0.103
ACTCTCAG	-0.232
ACCCTGCT	-0.0867
CGTCGACA	-0.0726
GACAAGCC	-0.0362
GAGTCGAC	0.0138
AGAAAGTC	0.0722
ATAAATCG	0.181
ACATAGTC	0.038
AGGCTTGG	-0.0783
AACCCGCA	0.0294
TCTCCAGA	-0.121
AAGAGTGA	-0.104
AGAACACT	0.105
GCGTCATA	0.0752
CTACCAAA	-0.0311
ACCTGTGC	-0.0927
GGTTGCTA	-0.126
CGAGTGAG	0.116
GTCTTCGA	-0.124
GACTGGGA	-0.199
ATAGCGAG	0.106

Sequence	PBM E-score
GACAGGGC	-0.00491
CTCCCAAC	-0.0916
ACTCAGCA	-0.185
CTCGTCGC	0.0828
AGGTCAAA	-0.135
AGCCCGAT	-0.14
TGTCCCAA	-0.0626
ATCGTGGG	-0.0189
ATAGTCTG	-0.124
CGTATCTC	0.289
GACTCCTC	-0.0345
AGAGGCCA	-0.13
AGTGCGAG	0.0414
TCGTCTAA	0.259
CCGGGATC	-0.0654
ACCAGAGG	-0.277
ACAATAGG	0.0197
AATAAAGA	0.0304
AATGCATA	0.00543
AGCGGTAA	-0.119
ATAGGCAC	-0.163
AGTTAGCA	-0.0102

Sequence	PBM E-score
ACTATACG	0.478
ATGAACAC	0.00333
GCAAAGAA	-0.0229
AAAAATTT	0.151
ACGAAAAT	0.362
CACAGCCC	-0.231
GTGAAGGA	-0.0439
CAAACCGA	0.118
ACGTATGG	0.329
ACTTCAAG	-0.156
ACTGTCTA	0.0492
GCTTCGCA	0.186
AACAGGGG	-0.185
AGGGCAAG	-0.113
ATACGATG	0.473
GAGCGAGC	0.273
AGATAAAA	-0.00321
AATTTCGT	0.307
CGCTTGAG	0.027
AAGCGACA	0.223
AAGGTAGT	-0.0541
AACGCAGC	0.162

Sequence	PBM E-score
AGTAACGA	0.299
GACACATA	-0.105
AGGAACTC	-0.0466
ACTGTTCA	-0.117
TCGCTAAA	0.316
CACTCACA	-0.0817
AGGTCCAT	-0.251
AGGCCGCA	0.0421
ATTATATA	0.0992
CCGACACA	-0.00715
CGATATCA	0.143
CACCGTCC	-0.16
AATCGCCG	0.0504
GCCGGTGA	-0.173
ACCATCCA	-0.342
CCATCAAG	-0.12
GGACTCCA	-0.212
AGAAAACG	0.149
CCCCATGA	-0.336
CATACCTC	0.0324
